In all, about 310,000 compounds went through this assay and about 14,000 (4.5%) showed an effect of 50% or more. Effects have a minus sign here. This is one part of the list.
Each compound was assayed against human ether-à-go-go-related gene (hERG) potassium channel (human, UniProt Q12809) (assay: primary screen, population patch clamp on CHO cells stably expressing hERG).
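Also: peak tail current of the secondary pulse compared with the same well before compound.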

human ether-à-go-go-related gene (hERG) potassium channel, sequence (Q12809 whole entry, looked up): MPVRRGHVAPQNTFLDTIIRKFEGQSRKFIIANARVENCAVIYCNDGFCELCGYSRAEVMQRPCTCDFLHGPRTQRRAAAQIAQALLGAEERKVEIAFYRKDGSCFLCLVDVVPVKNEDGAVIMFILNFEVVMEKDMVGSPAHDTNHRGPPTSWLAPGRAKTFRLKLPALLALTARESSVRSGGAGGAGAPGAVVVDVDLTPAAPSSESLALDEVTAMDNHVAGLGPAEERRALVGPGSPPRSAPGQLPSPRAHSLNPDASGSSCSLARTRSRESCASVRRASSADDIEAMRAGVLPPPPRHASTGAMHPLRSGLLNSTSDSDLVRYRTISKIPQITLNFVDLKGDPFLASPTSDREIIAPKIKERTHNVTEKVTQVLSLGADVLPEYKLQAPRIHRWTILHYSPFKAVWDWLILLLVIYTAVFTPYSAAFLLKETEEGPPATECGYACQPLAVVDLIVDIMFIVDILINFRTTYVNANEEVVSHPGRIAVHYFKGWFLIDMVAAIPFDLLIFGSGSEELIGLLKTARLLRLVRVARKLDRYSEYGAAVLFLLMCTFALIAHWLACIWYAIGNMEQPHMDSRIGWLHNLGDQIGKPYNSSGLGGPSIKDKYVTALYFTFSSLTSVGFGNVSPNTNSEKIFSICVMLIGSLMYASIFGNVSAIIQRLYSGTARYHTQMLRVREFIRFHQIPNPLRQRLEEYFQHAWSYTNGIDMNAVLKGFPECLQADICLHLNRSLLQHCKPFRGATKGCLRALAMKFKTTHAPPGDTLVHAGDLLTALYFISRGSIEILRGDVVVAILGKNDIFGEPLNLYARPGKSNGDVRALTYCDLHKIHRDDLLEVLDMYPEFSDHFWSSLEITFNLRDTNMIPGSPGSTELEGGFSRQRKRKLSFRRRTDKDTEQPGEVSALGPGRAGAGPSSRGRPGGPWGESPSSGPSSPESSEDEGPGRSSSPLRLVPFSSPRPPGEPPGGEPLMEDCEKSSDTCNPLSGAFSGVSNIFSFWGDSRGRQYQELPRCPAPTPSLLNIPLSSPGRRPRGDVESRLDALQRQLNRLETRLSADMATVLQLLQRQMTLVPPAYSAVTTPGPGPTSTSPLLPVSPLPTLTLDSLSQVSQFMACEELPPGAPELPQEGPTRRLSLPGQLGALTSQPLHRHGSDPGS

SMILES | hERG current change (%, negative = inhibition) at 10uM
CSc1nnc(-c2sc3cc(C(F)(F)F)cnc3c2-c2ccccc2)n1C | -18.8%
COc1ccccc1N1CCN(Cc2cccc(Br)c2)CC1.O=C(O)C(=O)O | -5.27%
Cc1cnc(NC(=O)c2c(-c3ccccc3)noc2C)s1 | -2.27%
N#Cc1ccccc1NC(=O)CN(Cc1ccccc1)Cc1ccccc1 | 16.4%
CC1CCCCC1NC(=O)C1CCN(C(=O)NC2CCCCC2)CC1 (stereo not shown) | 5.72%
CC(=O)C1=NN(c2ccccc2)C(c2cccs2)N1c1ccccc1 (stereo not shown) | 0.239%
COc1ccc(NC(=S)N2CCC(C(=O)c3ccc(C)cc3)CC2)cc1 | -21.9%
O=C(/C=C/c1ccco1)OCC(=O)c1cccc([N+](=O)[O-])c1 | 14%
Cl.N=c1c2c(n(Cc3ccc(Cl)c(Cl)c3)c3c1CCC3)CCCC2 | -15.8%
COc1ccc2[nH]cc(C(=O)CN3CCCC(C)C3)c2c1 (stereo not shown) | -13%
CCCn1c(=O)c(C(=O)NNC(=O)Cc2ccccc2)c(O)c2ccccc21 | -9.14%
CSCCC(NC(=O)c1ccccc1Br)C(=O)NCc1ccc(F)cc1 (stereo not shown) | -9.59%
CC(O)CN(CCC(N)=O)CCC(N)=O.O=C(O)C(=O)O (stereo not shown) | 21.4%
Cc1cc(C)cc(NC(=O)CSc2nnc(CN3CCOCC3)n2C)c1 | -13%
COc1ccc(C(=O)NCCc2nnc3ccc(SCC(=O)NCc4ccccc4)nn23)cc1 | 9.91%
CCN(CC)C(=O)CSc1nnc(-c2ccco2)n1N | -0.873%
Cc1cc(S(=O)(=O)Nc2c(C)nc3nc[nH]n3c2=O)ccc1F | 12%
O=C(CNC(=O)c1ccccc1)N/N=C/c1ccc([N+](=O)[O-])o1 | -17.3%
COc1ccccc1N1CCN(Cc2ccc(Br)s2)CC1 | -35.9%
Cc1ccc(OC(=O)c2ccccc2P(=O)(O)O)cc1 | 3.41%
COc1ccc2o/c(=N/NC(=O)c3cccs3)c(C(N)=O)cc2c1 | 2.16%
CCOc1ccc(N2C(=O)NC(=O)/C(=C\c3ccccc3[N+](=O)[O-])C2=O)cc1 | 5.02%
Cc1ccc2[nH]c(CN3CCC(CO)(CC4CCCCO4)CC3)c(C)c2c1 (stereo not shown) | -43.7%
Cc1ccn2c(CNCCn3nc(C)cc3C)c(C(=O)N3CCCCCC3)nc2c1 | -1.24%
Cc1ccc(NC(=O)CSCC(=O)NNC(=O)c2nn(C)c(=O)c3ccccc23)cc1 | -41.6%

Reference: PMC4336329 (PLoS ONE, 2015)
